Laboratory results reported in the supplement of paper PMC4604168 (melanoma cell lines).
Some of the results follow. Most values come without repeats; read them as rough.

Tests used:
Assay in all cases: cell count relative to DMSO control; melanoma cells; higher = more viable cells
Details in all cases: library dose: low library concentration; 72 h
MZ2-MEL = test system: MZ2-MEL
MeWo = test system: MeWo
RPMI7951 = test system: RPMI7951
RVH-421 = test system: RVH-421
SkMel28 = test system: SkMel28
SkMel30 = test system: SkMel30
SkMel5 = test system: SkMel5
UACC257 = test system: UACC257
UACC62 = test system: UACC62
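Further: cell number obtained by counting DAPI-stained nuclei in high-throughput microscope images with image analysis software, screen run in 1,536-well plates.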

Row | SMILES | cell count (MZ2-MEL) [%] | cell count (MeWo) [%] | cell count (RPMI7951) [%] | cell count (RVH-421) [%] | cell count (SkMel28) [%] | cell count (SkMel30) [%] | cell count (SkMel5) [%] | cell count (UACC257) [%] | cell count (UACC62) [%]
1 | C[C@]1(c2nc3c(C(N)=O)cccc3[nH]2)CCCN1 [Veliparib] + O=C(Oc1ccc([N+](=O)[O-])cc1)N1CCC(C(O)(c2ccc3c(c2)OCO3)c2ccc3c(c2)OCO3)CC1 [JZL184] (first compound 1.4 µM, partner dose 1 µM) | 105 | 101 | 90.6 | 93.4 | 82 | 79.5 | 77.4 | 90.4 | 83.8
2 | C/C(O)=C(\C#N)C(=O)Nc1cc(Br)ccc1Br + Cn1cc(/C=C2\C(=O)Nc3cccnc32)c2ccccc21 [GW441756] (first compound 2 µM, partner dose 0.4 µM) | 91.7 | 98.8 | 90.9 | 93.9 | 88 | 88.4 | 72.5 | 87.5 | 89
3 | CCc1ccc(CCOc2ccc(CC3SC(=O)NC3=O)cc2)nc1 (stereo not drawn) [pioglitazone] + O=C(Oc1ccc([N+](=O)[O-])cc1)N1CCC(C(O)(c2ccc3c(c2)OCO3)c2ccc3c(c2)OCO3)CC1 [JZL184] (first compound 2 µM, partner dose 1 µM) | 104 | 102 | 99.6 | 116 | 111 | 107 | 92.8 | 99.5 | 109
4 | CCN(CC)CCCCNc1ncc2cc(-c3cc(OC)cc(OC)c3)c(NC(=O)NC(C)(C)C)nc2n1 + Cc1cc(SCc2sc(-c3ccc(C(F)(F)F)c(F)c3)nc2C)ccc1OCC(=O)O [GW0742] (first compound 0.1 µM, partner dose 2 µM) | 99.3 | 100 | 110 | 99.4 | 97.7 | 99.7 | 98.7 | 98.1 | 83.6
5 | O=C(Oc1ccc([N+](=O)[O-])cc1)N1CCC(C(O)(c2ccc3c(c2)OCO3)c2ccc3c(c2)OCO3)CC1 + Cn1cc(/C=C2\C(=O)Nc3cccnc32)c2ccccc21 [GW441756] (first compound 1 µM, partner dose 0.4 µM) | 99.6 | 101 | 113 | 86.7 | 100 | 104 | 75.6 | 93.2 | 98.2
6 | CO[C@@H]1[C@H](N(C)C(=O)c2ccccc2)C[C@H]2O[C@]1(C)n1c3ccccc3c3c4c(c5c6ccccc6n2c5c31)C(=O)NC4 [Midostaurin] + C/C(O)=C(\C#N)C(=O)Nc1cc(Br)ccc1Br [LFM-A13] (first compound 0.08 µM, partner dose 2 µM) | 88.8 | 84.5 | 77.9 | 111 | 76.5 | 84.3 | 86.4 | 82.6 | 80.2
7 | COc1cc2c(Oc3ccc4[nH]c(C)cc4c3F)ncnc2cc1OCCCN1CCCC1 [cediranib] + O=C(Oc1ccc([N+](=O)[O-])cc1)N1CCC(C(O)(c2ccc3c(c2)OCO3)c2ccc3c(c2)OCO3)CC1 [JZL184] (first compound 0.4 µM, partner dose 1 µM) | 97.4 | 112 | 105 | 73.4 | 95.3 | 88.8 | 102 | 101 | 90
8 | OCCn1cc(-c2cnc3nnn(Cc4ccc5ncccc5c4)c3n2)cn1 + C/C(O)=C(\C#N)C(=O)Nc1cc(Br)ccc1Br [LFM-A13] (first compound 1 µM, partner dose 2 µM) | 100 | 111 | 104 | 111 | 98.2 | 105 | 89.7 | 87.8 | 106
9 | O=C(Oc1ccc([N+](=O)[O-])cc1)N1CCC(C(O)(c2ccc3c(c2)OCO3)c2ccc3c(c2)OCO3)CC1 + CC(C)CCN1c2nc(Nc3cc(F)c(O)c(F)c3)ncc2N(C)C(=O)C1C [BID1870] (first compound 1 µM, partner dose 0.2 µM) | 109 | 104 | 128 | 108 | 82.9 | 99.8 | 89.3 | 69.4 | 90.1
10 | Cn1nnc2c(C(N)=O)ncn2c1=O [temozolomide] + C/C(O)=C(\C#N)C(=O)Nc1cc(Br)ccc1Br [LFM-A13] (first compound 2 µM, partner dose 2 µM) | 93 | 104 | 93 | 110 | 79.8 | 80.7 | 107 | 104 | 82.3
11 | O=C(Oc1ccc([N+](=O)[O-])cc1)N1CCC(C(O)(c2ccc3c(c2)OCO3)c2ccc3c(c2)OCO3)CC1 + CCCCCCCCCCCC1=C(O)C(=O)C=C(O)C1=O [Embelin] (first compound 1 µM, partner dose 1.2 µM) | 98.7 | 121 | 103 | 111 | 89.3 | 106 | 94.7 | 90.4 | 106
12 | CO[C@@H]1[C@H](N(C)C(=O)c2ccccc2)C[C@H]2O[C@]1(C)n1c3ccccc3c3c4c(c5c6ccccc6n2c5c31)C(=O)NC4 [Midostaurin] + O=C(Oc1ccc([N+](=O)[O-])cc1)N1CCC(C(O)(c2ccc3c(c2)OCO3)c2ccc3c(c2)OCO3)CC1 [JZL184] (first compound 0.08 µM, partner dose 1 µM) | 92.7 | 99.5 | 105 | 144 | 101 | 93.1 | 106 | 113 | 81.3
13 | N#Cc1c(O)c2c(-c3ccc(-c4ccccc4O)cc3)csc2[nH]c1=O + Cc1cc(SCc2sc(-c3ccc(C(F)(F)F)c(F)c3)nc2C)ccc1OCC(=O)O [GW0742] (first compound 2 µM, partner dose 2 µM) | 98.4 | 94.9 | 89.5 | 79.2 | 106 | 89.7 | 90.8 | 88 | 98.6
14 | C/C(O)=C(\C#N)C(=O)Nc1cc(Br)ccc1Br + CC(C)CCN1c2nc(Nc3cc(F)c(O)c(F)c3)ncc2N(C)C(=O)C1C [BID1870] (first compound 2 µM, partner dose 0.2 µM) | 106 | 102 | 107 | 103 | 84.8 | 93.5 | 74.6 | 70 | 82.8
15 | CN(C)S(=O)(=O)c1ccc2c(c1)/C(=C/c1cc3c([nH]1)CCCC3)C(=O)N2 + C/C(O)=C(\C#N)C(=O)Nc1cc(Br)ccc1Br [LFM-A13] (first compound 0.4 µM, partner dose 2 µM) | 96.8 | 88.3 | 90 | 111 | 84.7 | 90 | 82.5 | 92.9 | 75.1
16 | NCC(=O)Nc1ccc(-n2nc(C(F)(F)F)cc2-c2ccc3c(ccc4ccccc43)c2)cc1 + Cc1cc(SCc2sc(-c3ccc(C(F)(F)F)c(F)c3)nc2C)ccc1OCC(=O)O [GW0742] (first compound 1 µM, partner dose 2 µM) | 93.2 | 54.2 | 113 | 106 | 89.6 | 44 | 72.3 | 106 | 95.7
17 | O=S(=O)(c1ccccc1)N(CC(F)(F)F)c1ccc(C(O)(C(F)(F)F)C(F)(F)F)cc1 + O=C(Oc1ccc([N+](=O)[O-])cc1)N1CCC(C(O)(c2ccc3c(c2)OCO3)c2ccc3c(c2)OCO3)CC1 [JZL184] (first compound 1.4 µM, partner dose 1 µM) | 95.8 | 102 | 105 | 113 | 84.8 | 93 | 77.4 | 109 | 81.7
18 | C/C(O)=C(\C#N)C(=O)Nc1cc(Br)ccc1Br + c1cc(-c2cnn3cc(-c4ccc(OCCN5CCCCC5)cc4)cnc23)ccn1 [Dorsomorphin] (first compound 2 µM, partner dose 0.4 µM) | 96.6 | 94.3 | 87.9 | 85.7 | 99.2 | 91.7 | 88.8 | 82.8 | 75.1
19 | CN(C)S(=O)(=O)c1ccc2c(c1)/C(=C/c1cc3c([nH]1)CCCC3)C(=O)N2 + Cc1cc(SCc2sc(-c3ccc(C(F)(F)F)c(F)c3)nc2C)ccc1OCC(=O)O [GW0742] (first compound 0.4 µM, partner dose 2 µM) | 105 | 95.2 | 102 | 107 | 88.6 | 94.8 | 87.6 | 88.2 | 89
20 | O=C(Nc1cccc(Cl)c1)Nc1ncc(CCNc2ncnc3ccsc23)s1 + C/C(O)=C(\C#N)C(=O)Nc1cc(Br)ccc1Br [LFM-A13] (first compound 0.0008 µM, partner dose 2 µM) | – | 93 | 119 | 114 | 93.9 | 107 | 89.9 | 106 | 106
21 | Cc1cn(-c2cc(NC(=O)c3ccc(C)c(Nc4nccc(-c5cccnc5)n4)c3)cc(C(F)(F)F)c2)cn1 [nilotinib] + C[C@]12O[C@H](C[C@]1(O)CO)n1c3ccccc3c3c4c(c5c6ccccc6n2c5c31)CNC4=O [Lestaurtinib] (first compound 0.2 µM, partner dose 0.004 µM) | 105 | 83.6 | 103 | 108 | 111 | 80.1 | – | – | 112
22 | COc1ccc(C2=N[C@@H](c3ccc(Cl)cc3)[C@@H](c3ccc(Cl)cc3)N2C(=O)N2CCNC(=O)C2)c(OC(C)C)c1 [Nutlin-3] + C[C@]12O[C@H](C[C@]1(O)CO)n1c3ccccc3c3c4c(c5c6ccccc6n2c5c31)CNC4=O [Lestaurtinib] (first compound 0.1 µM, partner dose 0.004 µM) | 98.7 | 83.3 | 87.9 | 89 | 96.4 | 95.9 | – | – | 97.1
